# Some of the results follow.
# Tested on: PfHDP1 homeodomain (GST-tagged)
# Experiment: gcPBM binding intensity (ln(normalized median fluorescence intensity)); higher = stronger DNA binding
# Method in brief: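 The highest Masliner-normalised natural-log median intensity across replicate spots of either probe orientation is reported as binding intensity. GST-tagged P. falciparum DNA-binding domains expressed in E. coli were applied for 1 h to an Agilent 4 × 180k array of primer-extended double-stranded 36-bp intergenic genomic probes plus negative controls, and bound protein was detected with Alexa488 anti-GST antibody and scanned at 488 nm.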
row,Sequence,gcPBM binding intensity (ln)
1,TATATATATTTAAAGGTGCAGATGCCAGTGTATATT,8.07
2,ATAAATATATTTAAATGTACATAATATATATATATA [XGTACX_site5137],8.87
3,ACATATTCATATGGAAGTACGATAATGTAGTCATAT [XGTACX_site7080],6.32
4,ATATATACATACAAATTAATTACGAGGAATATATTA [XGTACX_negctrl_site417],6.53
5,GTAAAAAAATTAAAAATTAACAAGGAATTAAGTATA [CACACA_negctrl_site1688],6.22
6,GGAACTTATTTTTATACACACATATGTGCATATTAT [CACACA_site629],10.8
7,TATACATATATATACACACACACATATATATATATA [CACACA_site1299],9.3
8,AAAAAAAATCAAATGGGTACTTATTCTTAATAATAT [XGTACX_site3792],6.2
9,TTTGCGTAGAAATGTGTGCACTGATATTTATAATAA [GTGCAC_site9526],9.87
10,ATTTTCCTTTTACCACGTACACATAAAAACGTTATA [XGTACX_site3595],7.09
11,TGAACTCATAGGAAAACACACATATGGGTAATATAT [CACACA_site187],6.78
12,GTTACATACCTATACACACACATATATAAATAAATA [CACACA_site6549],7.08
13,TAACAAAACATAGATTGTACATATTATAAATGTATA [XGTACX_site1543],6.48
14,CAATATTATATTACTTGTACACATATGTAGTTTCGA [XGTACX_site8945],6.67
15,TTTCCCATAGGAAAAACACACATATATTATATATAA [CACACA_site1981],6.22
16,CAAAATATACACACGTGTACACAAATATTTACAAAA [XGTACX_site2257],7.05
17,ATATAAAAATACAGGTGTACATTTTTTCATATTTAT [XGTACX_site6959],6.53
18,TATTCTTATCTTACCACACACAATGTACGAAAAGAT [CACACA_site6296],6.65
19,TTATGTCGTAAATACACACATACATATACATACACA [CACACA_site1374],6.92
20,TTGTCACTAATAGATGCATGCAATCATTCCATTTTT [TGCATGCA_site938],6.84
21,AATAAATTGAAACACACACACACATATATATATATA [CACACA_site848],9.16
22,TTGTAATGATATATTTGTACTTAATATAATTGTATA [XGTACX_site2748],6.33
23,ATATCTATATTTTAAAGTACGTAGTAAAAAGAAAAA [XGTACX_site4323],6.82

row,Sequence,gcPBM binding intensity (ln)
1,TTTTTTTTTTTTCTGTGTACATATATAATATATATA [XGTACX_site1592],6.63
2,TTTTATGAAAAGATGAGTACACAATACTTTTTAATT [XGTACX_site8253],6.09
3,ATCATTTTTTATGCGTGTACATAAATTTATTAGGTT [XGTACX_site2786],6.69
4,TTTTTTGTTAAACCGGTGCATATAAATATATATATA [GTGCAC_site9989],10.2
5,TAATTATTACACGGTATTATATATAATATGTTAAAA [GTGCAC_negctrl_site134],6.6
6,CACAAAAAAGTTCATACACACAACATATTTATATAT [CACACA_site2887],6.51
7,TTTTTCAATTGTAGTGGTACAGATATAATTATCTCT [XGTACX_site5500],6.64
8,TGCATGTAATTTTTGTGTCCACATAAAATATTTAAT [XGTACX_site5652],6.41
9,TTCTATATATTATATGCATGTAAAACATATTAAAAT [TGCATGCA_site662],6.59
10,TTTTTATGAAAATAAACACACGATTTATTATATATA [CACACA_site1311],6.2
11,TTTATTGCTCTATATGCACACCTTAATTCTTCATTT [CACACA_site8682],11.1
12,GAAGATTTATCTTGCACACGCAAAAAAAAAAAAAAA [CACACA_site154],8.55
13,GAAAATATTTCTATCTGTACTTATTTATATATATAT [XGTACX_site7317],8.51
14,TACGTAAATTCTAATACACACTATAGGATATTCTGC [CACACA_site7248],6.41
15,AAAAATAATCATAGTAGTACAAAAAAAAAAAAAAAA [XGTACX_site3736],6.44
16,ATGTACTATGATAATGCATGCAATAATACATTTTTA [TGCATGCA_site318],6.48
17,TTATTATGTATATATGCACACAATACCCAAAACAAC [CACACA_site80],9.84
18,TAATATATATATAATACACACTATTTTAATCACATA [CACACA_site4849],6.59
19,TCGAACATTAACATAACACACATATATATATATATA [CACACA_site2900],9.29
20,AAGGTTATTTATATATGTACTTAATATATATATATG [XGTACX_site886],6.32
21,TTTATAATATACATAACACACAATTATTATTTCTTA [CACACA_site3624],6.36
22,TTTTTTTCCTTATCTATATATAATCAAATTTTCTAC [CACACA_negctrl_site867],6.51

# Reference: the supplement of paper PMC11417369
